The inconclusive results got no clear call from the source; some entries with a clear call stand among them for comparison. Potencies of inconclusive entries are left out as doubtful fits. The source made the active and inactive calls. Calls follow the shape of the dose curve; as a rule, active = well fitted inhibition curve with a large enough effect; inconclusive = small, poorly fitted or top-dose-only effect, or another doubt; inactive = no such curve, though single readings can be large or run the other way.
target: DNA polymerase eta (Homo sapiens) (UniProt Q9Y253); assay: qHTS for Inhibitors of Polymerase Eta: Confirmatory Assay for Cherry-picked Compounds (AID 720502); conditions: Pol eta primer extension, TAMRA/BHQ fluorescence, 10 min
UniProt Q9Y253, sequence (Q9Y253 whole entry, looked up): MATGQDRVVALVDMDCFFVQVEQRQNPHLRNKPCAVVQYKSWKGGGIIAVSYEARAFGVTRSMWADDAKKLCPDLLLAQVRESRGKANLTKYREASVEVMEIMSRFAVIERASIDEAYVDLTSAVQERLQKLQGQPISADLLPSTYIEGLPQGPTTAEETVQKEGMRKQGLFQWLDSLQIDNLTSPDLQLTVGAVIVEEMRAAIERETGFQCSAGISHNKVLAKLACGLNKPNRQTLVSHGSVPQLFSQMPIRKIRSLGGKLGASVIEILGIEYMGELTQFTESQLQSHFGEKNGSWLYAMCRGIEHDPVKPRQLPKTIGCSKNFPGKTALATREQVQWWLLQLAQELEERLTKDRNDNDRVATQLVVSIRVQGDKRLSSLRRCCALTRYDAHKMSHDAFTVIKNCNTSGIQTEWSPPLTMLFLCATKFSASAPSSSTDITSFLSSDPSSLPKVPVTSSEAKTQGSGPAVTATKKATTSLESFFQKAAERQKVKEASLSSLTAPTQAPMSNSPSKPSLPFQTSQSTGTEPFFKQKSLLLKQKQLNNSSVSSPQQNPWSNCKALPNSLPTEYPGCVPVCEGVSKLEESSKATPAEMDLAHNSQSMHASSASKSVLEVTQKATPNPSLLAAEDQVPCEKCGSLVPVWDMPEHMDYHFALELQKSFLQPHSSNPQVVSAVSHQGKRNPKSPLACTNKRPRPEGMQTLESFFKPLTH
Summary of the method: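 Readout: TAMRA dequenching, ex 525/em 598 nm, read at 0 and 10 min. Enzyme: 10 nM human Pol eta, preincubated with compound 15 min RT. Substrate: 50 nM final annealed primer/reporter/template duplex.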
Potency is read from the fitted curve at half-maximal effect; tags tell the direction and shape of the fitted curve.

Structure (SMILES) | Potency
COC(=O)c1cc(Cl)ccc1NC(=O)CSc1ncc(S(=O)(=O)c2ccc(Br)cc2)c(=O)[nH]1 | inconclusive [inhibitor, single point]
Cc1ccccc1OCC(=O)N/N=C/c1sc(=O)n(Cc2cccc(C(=O)O)c2)c1Cl | inconclusive [inhibitor, single point]
O=C(/C=C/c1ccco1)Nc1sc2c(c1C(=O)O)CCC2 | inconclusive [inhibitor, single point]
CC(C)c1ccc(OCc2ccc(C(=O)O)o2)cc1 | inconclusive [inhibitor, single point]
O=C(Nc1cc([N+](=O)[O-])ccc1O)c1cccc(C(=O)Nc2cc([N+](=O)[O-])ccc2O)c1 | inconclusive [inhibitor, single point]
O=C(CSc1nc(=O)n2cc(Cl)ccc2n1)Nc1ccc2c(c1)OCCO2 | inconclusive [inhibitor, single point]
COC(=O)c1ccc(COc2ccccc2/C=C/C(=O)c2ccc(OCC(=O)O)cc2)cc1 | active: 47.8 µM
CC(=O)Nc1ccc(S(=O)(=O)N(C)c2ccc(OCCOc3cccc(C)c3)cc2)cc1 | inconclusive [inhibitor, single point]
Cc1ccc(NC(=O)CN(C)C(=O)c2cc(-c3ccco3)nc3ccccc23)cc1 | active: 60.1 µM
COc1ccccc1NC(=O)c1cc2cc3ccc(OC)c(Cl)c3nc2s1 | inconclusive [inhibitor, partial curve]
O=C(O)c1cccc(NC(=S)N/N=C/c2ccccc2OCc2cccc(Br)c2)c1 | active: 47.8 µM
COc1cc(OC)c(NC(=O)CN(C)S(=O)(=O)c2ccc3[nH]c(=O)oc3c2)cc1Cl | inconclusive [inhibitor, single point]
O=C(N/N=C/C=C/c1ccco1)c1cccs1 | inconclusive [inhibitor, single point]
O=C(N/N=C/c1ccco1)c1cccc(N2Cc3ccccc3C2)c1 | active: 42.6 µM
Cc1ccc(C(=O)N/C(=C/c2ccco2)C(=O)Nc2cccc(C(=O)O)c2)cc1 | inconclusive [inhibitor, single point]
CCN(CC(=O)Nc1ccccc1C(F)(F)F)C(=O)CCc1nc2sc3c(c2c(=O)[nH]1)CCCC3 | inconclusive [inhibitor, single point]
CC1=NN(c2ccc(C)cc2)C(=O)/C1=C/c1ccc(-c2cc([N+](=O)[O-])ccc2O)o1 | inconclusive [inhibitor, partial curve, poor fit]
Cc1ccc(NC(=O)CN2C(=O)N/C(=C\c3cccn3-c3cccc(-c4nn[nH]n4)c3)C2=O)cc1 | active: 75.7 µM
N#Cc1ccc(OCC(=O)Nc2cccc(S(=O)(=O)NC3=NCCCCC3)c2)cc1 | inconclusive [inhibitor, partial curve]
O=C(N/N=C/c1coc2ccccc2c1=O)c1cc(Br)c(O)c(Br)c1 | inconclusive [inhibitor, single point]

Structure (SMILES) | Potency
COc1ccccc1NC(=S)NC(=O)/C=C/c1ccco1 | inconclusive [inhibitor, single point]
O=C(COC(=O)c1cccc(S(=O)(=O)N2CCN(c3ccccc3)CC2)c1)NCc1ccco1 | active: 42.6 µM
CC(=O)c1cccc(NC(=O)CN2C(=O)C(=O)N(Cc3ccco3)C2=O)c1 | inconclusive [inhibitor, single point]
Cc1cc(/C=C\c2nc(O)c([N+](=O)[O-])c(=O)[nH]2)c(C)n1-c1ccccc1 | inconclusive [inhibitor, single point]
CC1=CC2(O)OCCN(CCO)C2=CC1=O (stereo not given) | inconclusive [inhibitor, single point]
Cc1cccc(N=C2NC(=O)/C(=C/C=C/c3ccco3)S2)c1 | inconclusive [inhibitor, single point]
N#C/C(=C\c1ccc([N+](=O)[O-])o1)C(=O)Nc1ccc(F)cc1 | active: 47.8 µM
CCOC(=O)c1cc2c(=O)n3cccc(C)c3nc2n(Cc2ccco2)c1=NC(=O)c1cccnc1 | inconclusive [inhibitor, single point]
Cc1ccccc1NS(=O)(=O)c1ccc2[nH]cc(C(=O)N3CCCCC3)c(=O)c2c1 | active: 75.7 µM
O=C(O)c1cccc(Cn2c(Cl)c(/C=N/Nc3ccccc3)sc2=O)c1 | inconclusive [inhibitor, single point]
COc1cccc(CNC(=O)CN2c3cccc4cccc(c34)S2(=O)=O)c1 | inconclusive [inhibitor, single point]
O=C(CSc1nc2ccsc2c(=O)n1NC(=O)c1ccccc1)NCc1ccco1 | inconclusive [inhibitor, single point]
CC(Oc1ccc2ccc(=O)oc2c1)C(=O)NC(Cc1c[nH]c2ccc(O)cc12)C(=O)O (stereo not given) | inconclusive [inhibitor, single point]
CCn1c(SCC(=O)N/N=C/C(C)=C/c2ccco2)nnc1-c1ccccc1 | inconclusive [inhibitor, single point]
O=C(c1cc(-c2ccco2)on1)N1CCCc2ccccc21 | inconclusive [inhibitor, single point]
CC(/C=C/c1ccco1)=N/NC(=O)Cc1cccs1 | inconclusive [inhibitor, single point]
COc1cc(/C=C2/C(=O)NN(c3cccc(C)c3)C2=O)cc([N+](=O)[O-])c1O | inconclusive [inhibitor, single point]
CSc1ccccc1NC(=O)c1noc2c1CCC2 | active: 60.1 µM
CC(/C=C/c1ccco1)=N\NC(=O)c1cc(Cl)ccc1O | inconclusive [inhibitor, single point]
COc1cc(Br)c(C(=O)c2nccc3cc(OC)c(OC)cc23)cc1OC | inconclusive [inhibitor, single point]

— PubChem BioAssay (NCATS)
